# Source: paper PMC10726135
# This is one part of the list. At the low end of the ranking the order means little. Measured with an extract: partners may take part in the binding.
# Target: T1, HNF4alpha2 (COS-7 nuclear extract) (UniProt P41235)
# T1 sequence: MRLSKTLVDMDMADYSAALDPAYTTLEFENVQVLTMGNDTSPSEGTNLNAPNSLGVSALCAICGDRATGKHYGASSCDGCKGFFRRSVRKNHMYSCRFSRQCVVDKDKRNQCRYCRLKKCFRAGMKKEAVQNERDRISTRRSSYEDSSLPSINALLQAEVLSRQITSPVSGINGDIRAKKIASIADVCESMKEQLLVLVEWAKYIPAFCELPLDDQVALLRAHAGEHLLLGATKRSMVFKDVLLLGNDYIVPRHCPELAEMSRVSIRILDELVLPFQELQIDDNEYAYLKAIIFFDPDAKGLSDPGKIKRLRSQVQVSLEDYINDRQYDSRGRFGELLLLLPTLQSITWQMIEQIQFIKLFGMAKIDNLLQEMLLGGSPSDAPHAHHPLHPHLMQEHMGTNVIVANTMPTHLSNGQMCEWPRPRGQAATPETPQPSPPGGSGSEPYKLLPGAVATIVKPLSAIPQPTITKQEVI
# Assay: protein-binding microarray
# Conditions: COS-7 nuclear extract on double-stranded Agilent 4x180k PBM; binding buffer, salt, pH and temperature not given; high values mean tight binding; double strand, one strand shown; sequences stand for … in …GCCTAGGGAGATTAGAGTATCGGTCGA
row,Sequence,binding signal (log2 normalized intensity)
1,ATGGAAGCCTTACCAGTAGGACCACATTCA,-0.858
2,AAGAAGGTTTACTCAAGCAAAAAGTTTGGA,0.467
3,TTTCAGACTATTTTATTTTCCCCCTTTGAA,3.86
4,GACCCAAGAAATAAAAACAGCTGGGTTCCA,-1.14
5,TTGCCCCTTTGACCCTCGGGCCTCCCTAGA,3.97
6,GCAATATGATAACCCAGTGCAATGCCTAAA,-1.06
7,AAAACCACTGTGCTCTGAAAAGTGAACTGT,2.1
8,CATGGTTTGCAAGACCTCTGAGAACTGGCC,-1.19
9,CCCACCCCCAAATCCCCTTCAAGTCTGAGA,4.83
10,TTCTTTCCCTCCAGCCCACTTACCACCCAC,4.32
11,GATAAGAAAAACTGAGCTTTAGATAGCTGT,-1.05
12,CGCTTGAGCCTGGGAGGCAAAGGTTGCAGT,2.16
13,GGCGGGGAGAGGGAAGAGTCTTCTCTTGAC,-1.1
14,CTAAAACCCATATCTGACTGATGCTAAAGT,0.16
15,AGCCTTTTGTCTGGTGGAGTAGAGCACATT,1.06
16,CTGAAGTGGCCCAAGATGGAGATGAGAAAC,-1.12
17,ACATCCTGGGTTATGATCCTGGCTCTCCCA,-0.952
18,ATGGGGGCTCAGGGCCTCTCTTCTTGTAAT,0.668
19,TCTGGTTTGACCTTAAGTCAGAAGAACTGA,2.56
20,AGGTCAGTCGACCCTCTCTGGATGCAGGTC,1.37

row,Sequence,binding signal (log2 normalized intensity)
1,TAATGAAATACCACTGCACACATAATAGAT,-1.11
2,GGTCGGAAGGGAGGTGCCATGTCACCGCAC,-0.663
3,CATCCCACATTCCACAGACTCACTTCCAGA,-1
4,CCAGGTGGCTGCATCCTTCTCCTCCCCTCC,3.25
5,GAAAAATGAATAACTTGAATTGATTGCCAA,-0.966
6,TACAGCTCATTAATCATCCGTCACCCAGAC,1.16
7,TGATTACCAGACAAGATCAATCAATTTACC,-0.976
8,TCAGTGTTTTCACTGCTGGGTTTCTTCCCT,1.19
9,AACGGCCCAGGGTTAGAGGATGACCTTCCC,2.99
10,GTTGACCTTTAGTCTCTAGCCCCGCCCAGA,4.82
11,CTTTCTAATCTCAAAGTGTCAGTCCAGAGT,2.22
12,CTCTGATCCTAGTCTTTGCCCCACTGCAAG,2.95
13,CTGGAGGATAAAGTTCAAGTAGATAAAATC,1.37
14,CTGACTAAAGTTCATTGCTTTGAGCATGAG,1.5
15,CTTTGGAGGGAGCCAGGTTATGCAGAGCTT,-0.998
16,GTGACTTGCTCAGTGTCACAGACTTAGCAC,-0.428
17,CAGTCAGTGAGACGTTCCAAACCGGTCTTT,0.302
18,TCACCAGATACTGAATCTCCCAGTGCTTTG,-0.955
19,GTGTCTTATCTTCCTCTGGCATCTGGTCAG,1.63
20,CTTTACCCCCATTTGGTAATGGGCCCCCAT,5
